Results reported in PubChem BioAssay AID588501 (NMMLSC, 2011).
Among all 360,000 compounds or so, about 420 (0.12%) were called active. Inconclusive means that the source gave no clear call. Such entries were picked first, then a sample of the others. Cut-off read from the data, not from the text of the source: active = inhibition above about 30%; inconclusive = no clear call, values can overlap the other calls; inactive = below that.

molecular target: Lethal factor (Bacillus anthracis) (UniProt P15917); experiment: anthrax lethal factor cleavage blockers – biochemical, multiplex microsphere, MLPCN library, primary screen (AID 588501); details: multiplex microsphere protease cleavage assay, LF; at 10 µM; hits give high values; note: plate controls were buffer without enzyme for full effect and enzyme alone for no effect
Sequence of UniProt P15917 (P15917 whole entry, looked up): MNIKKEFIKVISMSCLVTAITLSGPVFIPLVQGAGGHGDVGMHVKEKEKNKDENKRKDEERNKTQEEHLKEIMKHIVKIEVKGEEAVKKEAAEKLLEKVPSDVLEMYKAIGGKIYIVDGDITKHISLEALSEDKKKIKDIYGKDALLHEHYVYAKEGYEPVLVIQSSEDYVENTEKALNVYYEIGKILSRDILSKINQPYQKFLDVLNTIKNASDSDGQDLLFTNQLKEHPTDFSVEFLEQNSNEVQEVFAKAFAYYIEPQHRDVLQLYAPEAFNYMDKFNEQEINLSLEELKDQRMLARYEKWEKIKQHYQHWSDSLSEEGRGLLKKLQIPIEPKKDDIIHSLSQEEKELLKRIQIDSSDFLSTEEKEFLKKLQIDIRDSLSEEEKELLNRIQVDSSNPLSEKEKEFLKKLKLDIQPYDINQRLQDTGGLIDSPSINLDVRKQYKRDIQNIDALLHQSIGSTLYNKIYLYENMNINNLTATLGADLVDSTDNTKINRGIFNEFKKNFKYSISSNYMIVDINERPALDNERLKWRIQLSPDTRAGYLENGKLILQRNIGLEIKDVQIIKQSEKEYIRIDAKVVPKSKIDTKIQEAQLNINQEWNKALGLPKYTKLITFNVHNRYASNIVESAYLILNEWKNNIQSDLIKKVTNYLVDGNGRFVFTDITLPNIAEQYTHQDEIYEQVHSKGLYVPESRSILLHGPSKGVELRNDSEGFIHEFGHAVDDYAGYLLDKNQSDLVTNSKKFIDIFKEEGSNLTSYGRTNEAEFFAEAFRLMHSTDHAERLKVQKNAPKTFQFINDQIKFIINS

Row | Compound | inhibition
1 | O=C1/C(=C/c2cccc([N+](=O)[O-])c2)CSc2ccc(Cl)cc21 | active: 29.7%
2 | Cn1c(=O)c(=O)n(C)c2cc([N+](=O)[O-])c(N3CCOCC3)cc21 | inactive: 2.7%
3 | Cn1c(=O)c2c(nc(CN3CCOCC3)n2CC(O)CO)n(C)c1=O (stereo not given) | inconclusive: -13.9%
4 | c1ccc(N(c2ccccc2)c2nc(-n3ccnc3)nc(-n3ccnc3)n2)cc1 | inactive: -3%
5 | COc1ccc2oc(C(=O)Nc3ccc(N4CCOCC4)cc3)c(C)c2c1 | inconclusive: -2.5%
6 | CCN(CC(=O)Nc1c(F)cccc1F)C(=O)c1ccc(S(=O)(=O)N2CCCCC2)cc1 | inconclusive: -5.2%
7 | CC(=NNC(=S)N1CCN(c2ccccn2)CC1)c1nccs1 | active: 31.4%
8 | O=C1c2ccccc2C(=O)C1c1ccc2ccccc2n1 | inconclusive: -16.7%
9 | O=C(COC(=O)C1CCN(c2ccc(C(F)(F)F)cn2)CC1)Nc1cccc(F)c1 | inconclusive: -5.8%
10 | C=CCN=C1CC(C)(C)CC(=O)/C1=C(\O)c1ccccc1 | inconclusive: -7.8%
11 | O=C(Nc1nnc(C2CCCCC2)s1)c1cccs1 | inconclusive: 45.2%
12 | O=C(Nc1ccc(Cl)c(S(=O)(=O)N2CCOCC2)c1)c1cc(=O)[nH]c2ccccc12 | inconclusive: -3.5%
13 | Cc1onc(-c2ccccc2)c1C(=O)N/N=C/c1cccs1 | inconclusive: 13%
14 | CC(C)n1c(O)c(C2c3cc(Cl)ccc3Oc3[nH]c(=O)n(C(C)C)c(=O)c32)c(=O)[nH]c1=O (stereo not given) | inactive: 2.5%
15 | CCCn1c2ccccc2c2nc3ccccc3nc21 | active: 31.2%
16 | CCCCN(C(=O)c1cnc(C)cn1)c1c(N)n(CCC)c(=O)[nH]c1=O | inconclusive: -3.4%
17 | CCc1nnc(NC(=O)CSc2nnc(CNc3ccc(Cl)cc3)o2)s1 | inconclusive: -28.9%
18 | O=C(COC(=O)c1ccccn1)NCc1cccs1 | inconclusive: 5.7%
19 | S=C(NCCc1ccccc1)N/N=C/c1c(Cl)cccc1Cl | inactive: 0.3%
20 | Cc1ncn2cc(-c3ccc(Cl)cc3Cl)[nH]c(=O)c12 | inconclusive: -25.2%
21 | O=c1[nH]c(=O)n(CCc2ccccc2)c(O)c1C=NC1CC1 | inconclusive: -28.1%
22 | CCCCN(C(=O)COc1ccc(F)cc1)c1c(N)n(CC(C)C)c(=O)[nH]c1=O | inactive: -5.2%
23 | CN(C(=O)c1ccc2c(c1)CCO2)C(C)(C)C | inconclusive: -2%

Row | Compound | inhibition
24 | Cc1[nH]c2ccc(C(=O)OCC(=O)NC3(C#N)CCCCC3)cc2c1C | inconclusive: 4.3%
25 | COc1ccc(-c2ccnc(SCC(=O)c3ccc(Cl)cc3)n2)cc1 | active: 37.6%
26 | Cc1ccc(OCCCC(=O)Nc2cc(Cl)ccc2-n2cncn2)cc1 | inconclusive: -3.1%
27 | CCOC(=O)c1cnc(SCC(=O)Nc2ccc(NC(C)=O)c(OC)c2)nc1N | inconclusive: -8.5%
28 | Cn1ccnc1C(O)c1cc(C(C)(C)C)c(O)c(C(C)(C)C)c1 (stereo not given) | active: 31.7%
29 | O=C(NCC1CC1)C1(C(F)(F)F)C/C(=C\Cc2ccccc2)CCCO1 (stereo not given) | inactive: -2.6%
30 | CCCN(CCC)C(=O)CSc1nc2ccccc2c(=O)n1CC1COc2ccccc2O1 (stereo not given) | inconclusive: -19.7%
31 | O=C(Nn1c(O)c(C=C2N=c3ccccc3=N2)sc1=S)c1cccc(Cl)c1 | active: 55.7%
32 | CCN1CCN(C(C)C(=O)NC2CCCCC2)CC1 (stereo not given) | inactive: 0.8%
33 | CC(C)NC(=O)CCCc1ccccc1 | inconclusive: 1.7%
34 | Cc1cc2n(n1)C(c1sccc1C)Nc1ccccc1-2 (stereo not given) | inconclusive: -21.4%
35 | CN1CCN(C2=C(Cl)C(=O)N(C3CCCCC3)C2=O)CC1 | inactive: 14.6%
36 | O=S(=O)(c1ccccc1)N1CCN(c2ncnc3scc(-c4ccccc4)c23)CC1 | inconclusive: -8.3%
37 | COC(=O)c1scc(S(C)(=O)=O)c1-n1cccc1 | inconclusive: -20%
38 | COc1ccc(CCNC(=O)c2cc(S(=O)(=O)N3CCOCC3)ccc2N2CCCC2)cc1OC | inconclusive: 0.8%
39 | O=C1c2ccccc2C(=O)N1Cc1nc2ccccc2o1 | inactive: 2.2%
40 | Cc1cccc(-n2cc(-c3ccccc3)[nH]c2=S)c1 | inactive: -6.4%
41 | O=C(Nc1cc2c3c(c1)C1CCCC1CN3CC1CCCC21)c1ccccc1 (stereo not given) | inconclusive: -14%
42 | CCS(=O)(=O)Nc1ccc(C(=O)c2ccccc2)cc1 | inactive: 2.5%
43 | Cc1[nH]c(=O)[nH]c(=O)c1S(=O)(=O)Nc1ccc(F)c(Cl)c1 | active: 32.7%
44 | COc1cccc(N2CN(CCc3ccccc3)CNC2=S)c1 | inconclusive: 13.6%
45 | Cc1noc(C)c1COc1ccccc1C(=O)NNC(=O)c1ccccc1 | inconclusive: -6.5%
46 | O=C(Nc1cccc(Cl)c1Cl)C1CCN(C(=O)c2cccs2)CC1 | inactive: -4.6%

Row | Compound | inhibition
47 | Cc1ccc(SCC(=O)OCC(=O)N(C)CC(=O)Nc2ccc(F)cc2)cc1 | inconclusive: 1.1%
48 | O=C(NC(=S)NNC(=O)c1ccco1)c1ccccc1 | inconclusive: 1.5%
49 | COc1ccc(C(=O)Nc2cccc(S(=O)(=O)NC3=NCCCCC3)c2)cc1 | inconclusive: -6.7%
50 | CN(C)c1nc(Oc2ccc(=O)n(-c3ccccc3)n2)nc(N2CCOCC2)n1 | inactive: 0.2%
51 | Cc1c(C(=O)NCCSCc2ccc(F)cc2)cnn1-c1ccc(Cl)cc1 | inconclusive: -15.8%
52 | O=c1c(Cl)c(NCCO)ncn1-c1ccccc1 | inconclusive: -16.6%
53 | Cc1cc(NC(=O)CSc2nnc3ccc(-c4ccc(F)cc4)nn23)no1 | inconclusive: 4.3%
54 | CC(C)(C)OC(=O)NCCc1nnc(SCC(N)=O)o1 | inconclusive: -11.2%
55 | Cc1cccc(OC(C)C(=O)Nc2ccc(N3CCCCC3)cc2)c1 (stereo not given) | inconclusive: -8%
56 | CCCCN1C(=O)C(CC(=O)NCc2ccco2)CC(C(=O)N2CCOCC2)=C1C (stereo not given) | inactive: -0.9%
57 | CCOC(=O)CC(=O)CSc1ncc(C(=O)OCC)c(N)n1 | active: 50.3%
58 | Cc1cccc(NC(=O)CNC(=O)CN2C(=O)NC3(CCc4ccccc43)C2=O)c1C (stereo not given) | inconclusive: 2.9%
59 | CC(=O)Nc1ccc(NS(=O)(=O)c2ccc3c(c2)oc(=O)n3C)cc1 | inactive: 4.1%
60 | CCOc1ccc(C(=O)COC(=O)c2cc([N+](=O)[O-])ccc2N2CCOCC2)cc1 | inconclusive: -2.9%
61 | O=C(NCc1ccc(F)cc1)C1CCCN1C(=O)Nc1ccccc1 (stereo not given) | inactive: 0%
62 | COCc1cc(=O)[nH]c(SC)n1 | active: 45%
63 | Clc1ccccc1Sc1ccc(-c2ccccn2)s1 | inconclusive: -0.4%
64 | O=C(CSc1nnc(-c2ccccn2)n1Cc1ccco1)c1ccc(-c2ccccc2)cc1 | inconclusive: -24.5%
65 | O=C(Nc1nc2ccccc2s1)C1CCCN1S(=O)(=O)c1ccc(Cl)cc1 (stereo not given) | inactive: -1.8%
66 | COc1cc(/C=C/C(=O)NNC(=O)c2cccc(S(=O)(=O)N(C)C)c2)cc(OC)c1OC | inconclusive: -0.8%
67 | COC(=O)CSc1nnc(CNC(=O)c2cccc(C)c2)n1-c1ccccc1OC | inactive: -6%
68 | Cc1cc(C(=O)N/N=C/C=C/c2ccc([N+](=O)[O-])cc2)n[nH]1 | inactive: -1%
69 | CCOC(=O)CCCSc1nc2sc3c(c2c(=O)[nH]1)CCC3 | inconclusive: 13%

Row | Compound | inhibition
70 | O=C(Nc1ccc(F)cc1)C1CCN(C(=O)NCc2ccccc2)CC1 | active: 33.1%
71 | CC(=O)c1c(C)n([O-])c2ccc(C)cc2[n+]1=O | inconclusive: -3.3%
72 | CC12CC3CC(C)(C1)CC(C(=O)NNC(=O)c1ccncc1)(C3)C2 | inactive: 2.2%
73 | CCOC(=O)[C@]12CCC=C1N(Cc1ccco1)C(=O)[C@H](CC(=O)NCc1cccc3ccccc13)C2 | inactive: -8.4%
74 | CSc1ncc(Cl)c(C(=O)Nc2ccccc2C)n1 | active: 30.1%
75 | O=C(Cn1c(=O)c2cccn2c2ccccc21)Nc1cc(F)ccc1F | inconclusive: 3.4%
76 | CCC(CO)Oc1cc(NCc2ccccn2)c2ncn(C(C)C)c2c1 (stereo not given) | inactive: -0.9%
77 | COc1ccc(C2(c3ccc(OC)cc3)NC(=O)N(CC(=O)NC3CCCC3)C2=O)cc1 | inconclusive: 0.5%
78 | CC(/C=N/NC(=O)c1nnn(-c2nonc2N)c1CN(C)C)=C\c1ccco1 | inconclusive: -8.8%
79 | COc1ccc(-n2cnnc2SCC(=O)c2ccc(S(=O)(=O)N3CCOCC3)cc2)cc1 | inconclusive: -2.2%
80 | CCn1c(COc2cccc(C)c2)nnc1SCC(=O)CC(=O)Nc1ccccc1OC | inconclusive: -16.9%
81 | CCc1noc(C)c1C(=O)N(CCC(C)C)c1c(N)n(Cc2ccccc2)c(=O)[nH]c1=O | inconclusive: 0.1%
82 | O=C(CSc1nc(=O)n2ccccc2n1)OCc1ccccc1 | inconclusive: -3.3%
83 | CS(=O)(=O)c1ccc(Nc2nc(C(N)c3ccccc3Cl)cs2)cc1 (stereo not given) | inactive: -0.2%
84 | CCN(CC)S(=O)(=O)c1cccc(C(=O)N[C@H](C(=O)NCc2ccccc2F)C(C)C)c1 | inconclusive: -23.4%
85 | CC(C)(C)OC(=O)NCCCCCc1nnc(SCc2c(F)cccc2Cl)o1 | inconclusive: 3.9%
86 | Cc1cc(OCC(=O)N(Cc2ccco2)C2CCS(=O)(=O)C2)cc(C)c1Cl (stereo not given) | inconclusive: -13.2%
87 | O=C(NCC(=O)N1CCCC1)c1ccc(Cl)cc1 | active: 31.3%
88 | CC(C)N(C(=O)CSc1nnc(-c2cc3ccccc3cc2O)n1Cc1ccco1)C(C)C | inactive: 0.9%
89 | COc1ccc(-c2nnn(CC(=O)N(Cc3ccccc3Cl)C(C(=O)NCC3CCCO3)c3ccco3)n2)cc1OC (stereo not given) | inconclusive: -5.2%
90 | O=C(NCC1CCCCC1)C1CCCN(C(=O)NC2CCCCC2)C1 (stereo not given) | inconclusive: 9.2%
